Results: the supplement of paper PMC12632987
Whole data set: some 1,800 sequences, median “median log2 fold change of GCK-ALFA target abundance (FLAG IP / Myc IP barcode read proportion)” near 0.14, cut for the lowest 2% near -0.84. The list shows a part of the results.

T1: TRAF2, Q12933
T1 chain: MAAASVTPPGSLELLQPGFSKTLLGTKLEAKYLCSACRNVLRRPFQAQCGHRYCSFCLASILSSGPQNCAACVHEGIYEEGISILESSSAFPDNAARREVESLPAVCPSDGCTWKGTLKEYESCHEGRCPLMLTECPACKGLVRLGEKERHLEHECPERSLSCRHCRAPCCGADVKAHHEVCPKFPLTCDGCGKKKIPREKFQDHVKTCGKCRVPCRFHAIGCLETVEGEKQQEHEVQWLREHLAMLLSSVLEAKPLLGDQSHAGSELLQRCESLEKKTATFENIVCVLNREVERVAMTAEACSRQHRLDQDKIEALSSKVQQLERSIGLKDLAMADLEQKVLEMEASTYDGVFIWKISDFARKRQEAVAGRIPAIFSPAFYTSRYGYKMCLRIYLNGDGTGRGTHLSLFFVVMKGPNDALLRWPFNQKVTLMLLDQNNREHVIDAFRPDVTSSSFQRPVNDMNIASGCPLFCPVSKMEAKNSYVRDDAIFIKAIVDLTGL

B1: traf2_out_9_108_2600 (protein)
chain: MTPEELADAAVDRVVGTVEARVPEVQFSPEQREAIRRNTLRVVRLSEITNETTITSYVAAEVLLAAADLPDEVLARIADVLIELDPATESTVRRTLSLLK
B2: traf2_out_12_187_946 (protein)
chain: SVQEELIEAAKAGLKRAIEALKKIAPTDEEAKRFLEKLEKLKKLMEKHPELAADTLVAASAVLRYVRLVEAGAPKEEIEKAKKEAEKILEEVLKKAEELA
B3: traf2_out_14_149_1239 (protein)
chain: AHEAELYKAAAELAKKAAEALKEVLKLLEEGKVEEAKKLLKETIKELKEEGKKHGISISIIYELEHILKLLDKDVEKAKKAAKEALKRAKDRAEAFASLA
B4: traf2_out_3_89_2292 (protein)
chain: SEERERKIRLARERAERYARGFEKSARRVAKEMLKEGYSLETLRGVLEAARTALVEVFREELRELGLSEEDIRELVEELERRLREIVEKVLEEAEKKRKE
B5: traf2_out_17_178_1737 (protein)
chain: TKEELLKKISEYADKRLDTNRDAMARLRAIAEAEGVLTPELAARLDAAARNANLYHLEEVFAEVRALVSSKEEVTALEERTVAELRRLNKEIQEAVDKLE
B6: traf2_out_6_166_2462 (protein)
chain: SEEIREEIRKIIEELSKYPVEVILEAFDRVAEEVDERSARIARQARSAVRQAQKLGLDVATVLSAFVDGLIALGVPEEELLELYKKILEKAKEIAKEKEE
B7: traf2_out_16_62_1467 (protein)
chain: EEKKKELEKKADELVDAAQELRDTVITFRSGGDREAALARLAELAKKYGPLMQALLDALRAALADPARREEYLAEADDLAVEARTRLVKEALELEKKAKE
B8: traf2_out_11_104_635 (protein)
chain: LTREQAREFNDFAMAQRDKAAAIAAKLAAELKALGETEAAAKVEAALAHPGAGISTFRNLFEDLKPTLSPEAAAKADAAIAELAALQKAVSDKLNELEKK
B9: traf2_out_6_166_2463 (protein)
chain: SEETRAEIRKIIEELSKYPVEVILEAFDEVAKEVDPESARIARQMRSAVRQAQKLGLDVATVLSAFVDGLIALGVPEERLLELLKKVLKKAKEIAKEKEE
B10: traf2_out_11_79_931 (protein)
chain: SEKRKELEELIKKALKLVEELIKKLKEGNISEEEFAKTIEEILELLQRAMQLALELGLSDVLVLLSEARRHVLLSRTRNLEELEKAAKYLKEALKELEKE
B11: traf2_out_18_3_1893 (protein)
chain: SEEKRKEASERLDKIVDEVKAYALKVADEIEAEHPEVAEEVAAIRELVEAGRNPFGGLEALAEIAKRLGLEEKAKEIEEFLREKRKEAQKAVEEMEKLIK
B12: traf2_out_14_166_1280 (protein)
chain: MTPEEIARIREIVDKLEPLNEKAVAEARKIIEKNREKLSPEQLAELERLLEIAERNIGSTAINAFREMAKIFKKAGLEEAAKEFEKLAEELEKELSKLNK
B13: traf2_out_11_169_774 (protein)
chain: AEAEKNRKINDFALELNDKAKEELKKHALALAKEAGLDVAEVEKIFEENKNKSLSAVAAALIEYFRSQGKEEAAAAIEAKYDELKDKINKESSAFIKSLE
B14: traf2_out_14_166_1273 (protein)
chain: MSPEEIERIKEIADRQLELADEFVARARALLAEHRAELSPELLAELEALLAQAENRGLNTVAALLAQMAALARAAGHEALAAAFEALAREAEAEYRALLK
B15: traf2_out_20_3_2244 (protein)
chain: SALEAQLQAALDALAAQLDALAPALPADDAARLRALLDAARAAYQTDKTDALVALSELRRALLELAERARAAGDAATAAALEAAADLANRAMQLVYQLIE
B16: traf2_out_12_187_952 (protein)
chain: SVEEELLRAAEEAVRQAKRRLEKHKGEDPFVQELLEKLEELEELLKKHPEIAADLLVAASAIIRYMDLVEEGAPAEEIEAAREEAERLLEEALEEAEKLL
B17: traf2_out_18_3_1895 (protein)
chain: KEEELKKVSEEIDKIIDEVTARAREVLDRLAAEHPEVAAEVDALRADLEAGAGPFGILEELARLARRAGDEEEAAEIEAFLKEKRKELSKLVEKYEELLK
B18: traf2_out_20_38_2006 (protein)
chain: SEEEEEEKRLQKIIDAANEELDRWEKEIEELRAEGKSVEEIAEIAKKRIREMLTAAGLEEEAEELIAQVDTVLDSPDAERAIARILARAAALVTQKKLQE
B19: traf2_out_11_169_788 (protein)
chain: EEREKNRKFNDHALELEDKAKEELKKFALALAKEHGLDVEAVKAIFEENKGKSLSAIAAALIAYFTAQGDEEAAAAVLAKYEELKEKINKEGSKFLKELE
B20: traf2_out_19_16_1989 (protein)
chain: SKEEAEKLKKEMNKYLDEALELAKEAVENLDELSREELMDKLVEISELMRKAKELLQKYLELNKDDEEERKKVTEEFDKKYDEIMKLMTIIVKKIEELLK
B21: traf2_out_14_149_1242 (protein)
chain: SAEAKLYKAAAELAEEIAKALEEALKLLDAGKVEEAKKLLEETIKKLEERGKEAGISISGIFVLEHILELLDKDPEAAKAAAEEALKRAKSAAEAFKSLA
B22: traf2_out_5_63_2337 (protein)
chain: SERERLTALAREADRAVREIADALKAGDEEKARALVEEVAKDPELLRTALGIAKAELKYASLDPSLAEEKAIWQKLVELLEEAKARRAEEEAAAAEAAAA
B23: traf2_out_20_38_2032 (protein)
chain: SEEEEEERRLEEAIEVANEAYDRYTARFEEWQAAGKTVEEIAEETKKEVKELLEKAGLEEEAKILIEDIDLALSSPDAVRLLVRILARAEALVWQKEKEK
B24: traf2_out_20_38_2018 (protein)
chain: SEEEEEKEKEEKLIEHAREAYDEAEAWVARLVAEGKSVEEIAEEAKKRIKELLTKHGLEEEAKELIEDVDRVLDSPDALRLIVRILARAETLVFQKELQK
B25: traf2_out_6_156_2390 (protein)
chain: MLEEILKKAKEEIEKLIKEMSKASEEKKISYINKIAGVVYNALQKAREAGASLEELKKLSEELLKHLEEEAKKYGLDEDTKNLLLSSINAVFDVALEEAK
B26: traf2_out_1_27_1007 (protein)
chain: SDEEFRALLREADRALGSLSPEEALAAAREAVRRALARGVGEARHLAVVLVLSQADDELAEALLEAIEEVLREAGVSQEEIDEIRRRAESGRARLKKARA
B27: traf2_out_13_95_1128 (protein)
chain: SKETAEKIMEIADEMLDRVEALLEALLAEARAAGVGVAEVEEALHLARNRSVNEAIALLRELAARLPEFRAAFDATIAEIEAIRREAGRKVAEIIKEEKE
B28: traf2_out_16_171_1434 (protein)
chain: SKEEEEKKLKEEIEKDAKELIERMETAVEMTPLISKETGLTKEQIAAGFRSTMTDRIEALRKHYLEKAKDMSEEVKKFIEEQIAKVEAALDEAVAKILAL
B29: traf2_out_17_178_1718 (protein)
chain: SKEEKRKLISELTDELIDLSEEAAQRLLDLARAEGTLTPEELAALEAARRRGSNNDTLALGRRIAPKLKSRAEAEALLAEFEERSRELAKKIAEAYKEYE

Target: T1, TRAF2, Q12933
Assay: median log2 fold change of GCK-ALFA target abundance (FLAG IP / Myc IP barcode read proportion) (log2 ratio); each designed protein is fused to an ALFA-tag nanobody in HEK293 cells to bring the named protein to FLAG-tagged glucokinase (GCK); Myc marks an untargeted standard; higher = target protein stabilised (more abundant)
Settings: target protein: 3xFLAG-MCP-GCK-ALFA reporter; HEK293 landing pad (RPLP)
Outline: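 Sequencing of reverse-transcribed, amplified circular RNA barcodes from anti-FLAG and anti-Myc immunoprecipitates provided the readout for an ALFA-nanobody-fused binder library recombined into HEK293 landing-pad cells. Those cells were induced with 2 μg mL^−1 doxycycline, transfected with a plasmid expressing a FLAG-tagged target and a Myc-tagged standard, and lysed after 48 h. Target abundance is the per-binder median log2 ratio of FLAG to Myc barcode read proportions. Only barcodes at a proportion of ≥10^−7 in both replicates and binders with ≥3 barcodes per replicate were kept, with a 10^−6 pseudocount added before the two replicates were pooled.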

Binder	median log2 fold change
B1	0.0855
B2	0.171
B3	0.182
B4	-1.24
B5	0.124
B6	-0.374
B7	0.0511
B8	0.31
B9	-0.176
B10	0.265
B11	0.281
B12	0.218
B13	0.234
B14	0.288
B15	0.244
B16	0.133
B17	-0.142
B18	-0.29
B19	0.249
B20	0.137
B21	-0.0513
B22	0.16
B23	-1.23
B24	0.14
B25	0.184
B26	0.0385
B27	-0.586
B28	0.346
B29	0.278
